Source: patent publication US20230349919A1

B1: Table 1 Line # 45 antibody (SP_Plasma_cell) (antibody, human IgG4, V domains shown)
VH: EVQLVESGGGLVQPGRSLRLSCAASGFTFDDYAMYWVRQTPGKGLEWVSGITWNSGSIGYAASVQGRFTISRDNAKNSLYLQMNSLRAEDTALYYCTKDLGGSYLGFDYWGQGTLVTVSS
VL: EIVMTQSPGTLSLSPGERATLS[sequence of about 80 residues omitted]FGQGTKLEIK
B2: Table 1 Line # 51 antibody (SP_Plasma_cell) (antibody, human IgG4, V domains shown)
VH: EVQLVESGGGLVQPGGSLRLSCAASGFTFSSHAMHWVRQAPGKGLEYVSGISSNGGSTYHADSVKGRFTISRDNSKNTLYLQMGSLRAEDMAVYYCARYSSRRYYGMDVWGQGTTVTVSS
VL: [sequence of about 100 residues omitted]TFGQGTKLEIK
B3: Table 1 Line # 9 antibody (BM_Plasma_cell) (antibody, human IgG4, V domains shown)
VH: QVQLVQSGAEVKKPGASVKVSCKASGYTFTSYDINWVRQATGQGLEWVGWMNPNSGNTGYAQKFQGRVTMTRNTSITTAYMELSSLRSEDTAVYYCARPYSRATGYFDLWGRGTLVTVSS
VL: [sequence of about 100 residues omitted]FTFGPGTKIDIK

Columns and labels:
[1] = target: human IL-6Rα (hIL-6Rα), barcoded negative control antigen (human) (UniProt P08887); assay: barcoded-antigen count on source cell (scRNA-seq)
Chain of UniProt P08887 (P08887 20-358 limits assumed): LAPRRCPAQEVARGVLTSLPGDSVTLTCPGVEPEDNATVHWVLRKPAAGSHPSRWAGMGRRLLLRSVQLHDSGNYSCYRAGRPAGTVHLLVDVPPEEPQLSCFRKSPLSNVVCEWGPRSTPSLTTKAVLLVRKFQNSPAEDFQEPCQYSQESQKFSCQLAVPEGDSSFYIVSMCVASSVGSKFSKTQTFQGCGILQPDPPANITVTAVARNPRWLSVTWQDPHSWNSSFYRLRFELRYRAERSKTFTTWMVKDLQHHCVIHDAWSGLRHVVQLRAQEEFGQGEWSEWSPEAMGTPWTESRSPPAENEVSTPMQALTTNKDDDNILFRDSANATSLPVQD

[2] = target: human IL-4Rα (hIL-4Rα) monomeric protein (human) (UniProt P24394); assay: barcoded-antigen count on source cell (scRNA-seq)

Binder | REGN78.L15 ab raw [1] [counts] | REGN560.L15 ab raw [2] [counts]
B1 | 25 | 1780
B2 | 3 | 897
B3 | 890 | 3570
